Experimental data published in US20190062448A1, “ANTI-CD39 ANTIBODIES, COMPOSITIONS COMPRISING ANTI-CD39 ANTIBODIES AND METHODS OF USING ANTI-CD39 ANTIBODIES” (Tizona Therapeutics, priority 2017, published 2019).

Legend:
[1] = molecular target: T1, human-mouse CD39 chimeras (Homo sapiens, UniProt P49961, D150A/E143Q/E153S/L144S/N158S/R147E/R154T/S157K/V151A); assay: Binding to human-mouse CD39 chimeras and point mutants expressed in CHO cells (FACS); details: 15 μg/ml antibody
T1 construct: expressed in transfected cells; host or cells: CHO cells
T1 sequence (P49961 1-510 E143Q/L144S/R147E/D150A/V151A/E153S/R154T/S157K/N158S): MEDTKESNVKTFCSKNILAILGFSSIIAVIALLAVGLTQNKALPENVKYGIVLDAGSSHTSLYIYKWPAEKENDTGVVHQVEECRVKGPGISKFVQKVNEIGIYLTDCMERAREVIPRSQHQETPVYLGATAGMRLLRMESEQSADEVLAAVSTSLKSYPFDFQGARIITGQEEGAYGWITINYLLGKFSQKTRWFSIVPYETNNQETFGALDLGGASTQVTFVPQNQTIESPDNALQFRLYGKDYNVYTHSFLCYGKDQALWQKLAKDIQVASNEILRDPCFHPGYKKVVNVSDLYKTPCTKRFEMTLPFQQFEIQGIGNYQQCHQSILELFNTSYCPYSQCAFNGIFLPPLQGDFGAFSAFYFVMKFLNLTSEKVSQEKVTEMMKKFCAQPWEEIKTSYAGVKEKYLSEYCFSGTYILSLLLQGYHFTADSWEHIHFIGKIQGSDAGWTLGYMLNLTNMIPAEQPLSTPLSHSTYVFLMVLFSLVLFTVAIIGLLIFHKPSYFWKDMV
Description: (§1) Chimeras were generated by replacing human CD39 with mouse CD39 sequence in mammalian expression vectors. The chimeras were expressed in CHO cells and the ability of anti-human CD39 antibodies to bind the chimeras tested via FACS. In brief, cells were washed and blocked in FACS buffer (PBS/2% FBS) for 30 min on ice. They were then incubated with 15 μg/ml anti-human CD39 antibodies diluted in FACS buffer×1 h on ice. After 2 washes, cells were incubated with fluorescently labeled anti-human Fc antibodies, anti-mouse Fc antibodies, or anti-mCD39 antibody (R&D Systems 495826) diluted in FACS buffer per manufacturers' instructions×30 min on ice. After 2 washes, cells were resuspended in FACS buffer and analyzed on BD Fortessa. Data was processed with FlowJo. Positive binding was scored as “yes” and lack of binding was scored as “NO” and examples of FACS plots used to generate this table are in FIGS. 14.F and 14.G.
(§2) Chimeras were generated by mutagenesis of Chimera #2 or WT hCD39 expression vectors. Residues for mutagenesis were chosen based on divergence between human and mouse CD39. The chimeras were expressed in CHO cells and the ability of anti-human CD39 antibodies to bind the chimeras tested via FACS, as described in FIG. 14E. Table 2. Positive binding was scored as “Yes” and lack of binding was scored as “No” and examples of FACS plots used to generate this table are in FIGS. 14.F and 14.G.

[2] = molecular target: T2, human-mouse CD39 chimeras (Homo sapiens, UniProt P49961, E276G/I277V/N275G); assay: as above; details: 15 μg/ml antibody
T2 construct: expressed in transfected cells; host or cells: CHO cells
T2 sequence (P49961 1-510 N275G/E276G/I277V): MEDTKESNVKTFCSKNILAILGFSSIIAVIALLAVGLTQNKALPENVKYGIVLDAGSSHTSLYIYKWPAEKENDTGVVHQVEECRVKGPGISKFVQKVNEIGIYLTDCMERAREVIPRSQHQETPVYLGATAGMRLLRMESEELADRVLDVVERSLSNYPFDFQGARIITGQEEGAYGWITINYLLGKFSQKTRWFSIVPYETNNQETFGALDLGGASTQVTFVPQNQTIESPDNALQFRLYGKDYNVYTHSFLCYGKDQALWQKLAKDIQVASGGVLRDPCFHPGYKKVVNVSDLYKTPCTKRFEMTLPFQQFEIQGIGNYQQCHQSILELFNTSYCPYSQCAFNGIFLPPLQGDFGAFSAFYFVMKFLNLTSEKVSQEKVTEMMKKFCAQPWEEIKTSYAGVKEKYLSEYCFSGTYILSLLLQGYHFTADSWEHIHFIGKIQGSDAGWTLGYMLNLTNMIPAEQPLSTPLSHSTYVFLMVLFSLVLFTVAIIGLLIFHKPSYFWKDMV
Description: as §1, §2

binding to Chimera #4 [2]: able to bind all chimeras but Chimera #2
B1: 31414: inhibitory anti-CD39 antibody, contacts E143-N158 incl. D150 and E153 (antibody)
heavy: QVQLVQSGAEVKKPGASVKVSCKASGYTFKSYEMHWVRQAPGQGLEWMGRINPSVGSTWYAQKFQGRVTMTRDTSTSTVYMELSSLRSEDTAVYYCARGKREGGTEYLRNWGQGTLVTVSSASTKGPSVFPLAPCSRSTSESTAALGCLVKDYFPEPVTVSWNSGALTSGVHTFPAVLQSSGLYSLSSVVTVPSSSLGTKTYTCNVDHKPSNTKVDKRV[human IgG4 Fc with S228P (EU numbers) left out here]
light: EIVLTQSPGTLSLSPGERATLSCRASQSVSSSYLAWYQQKPGQAPRLLIYGASSRATGIPDRFSGSGSGTDFTLTISRLEPEDFAVYYCQQYHSYITFGGGTKVEIKRTVAAPSVFIFPPSDEQLKSGTASVVCLLNNFYPREAKVQWKVDNALQSGNSQESVTEQDSKDSTYSLSSTLTLSKADYEKHKVYACEVTHQGLSSPVTKSFNRGEC
modifications: Synthetic HC, 31414; Synthetic LC, 31414
notes: D150 and E153
binding to Chimera #2 (human E143-N158 replaced by mouse sequence) [1]: able to bind all chimeras but Chimera #2; also recorded: inability to recognize Chimera #2

Entries after “also recorded” stand apart in the source; their conditions may differ.
